# Experimental data as given in the supplement of paper PMC8728848.
# The other results are listed elsewhere or left out.
# B1: GALT1 115 D492A (Arabidopsis thaliana), Q8L7F9 (protein)
# chain: DPMRGSHHHHHHGMASMTGGQQMGRDLYDDDDKSRLQKPYITAAASVVVTPNTTLPMEWLRITLPDFMKEARNTQEAISGDDIAVVSGLFVEQNVSKEEREPLLTWNRLESLVDNAQSLVNGVDAIKEAGIVWESLVSAVEAKKLVDVNENQTRKGKEELCPQFLSKMNATEADGSSLKLQIPCGLTQGSSITVIGIPDGLVGSFRIDLTGQPLPGEPDPPIIVHYNVRLLGDKSTEDPVIVQNSWTASQDWGAEERCPKFDPDMNKKVDDLDECNKMVGGEINRTSSTSLQSNTSRGVPVAREASKHEKYFPFKQGFLSVATLRVGTEGMQMTVDGKHITSFAFRDTLEPWLVSEIRITGDFRLISILASGLPTSEESEHVVDLEALKSPTLSPLRPLDLVIGVFSTANNFKRRMAVRRTWMQYDDVRSGRVAVRFFVGLHKSPLVNLELWNEARTYGDVQLMPFVDYYSLISWKTLAICIFGTEVDSAKFIMKTDDAAFVRVDEVLLSLSMTNNTRGLIYGLINSDSQPIRNPDSKWYISYEEWPEEKYPPWAHGPGYIVSRDIAESVGKLFKEGNLKMFKLEDVAMGIWIAELTKHGLEPHYENDGRIISDGCKDGYVVAHYQSPAEMTCLWRKYQETKRSLCCREW
# Assays:
# Experiment in all cases: glycan array binding signal (z-score within array); higher = stronger binding
# Conditions in all cases: glycan notation: IUPAC condensed, linker removed
# Fuc(a1-2)Gal = molecular target: Fuc(a1-2)Gal
# How it was run: (§1)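 Glycan array data were curated from 3228 arrays in the Consortium for Functional Glycomics database and kept only where the protein sequence was available. Glycan names were converted to IUPAC-condensed notation, and columns mapping to the same glycan were averaged. The binding signal is a within-array Z-score, averaged across arrays of the same protein sequence at different concentrations or buffers and across linkers. Negative Z-scores can be read as non-binding.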
# Fuc(a1-2)Gal(b1-3)GalNAc = molecular target: Fuc(a1-2)Gal(b1-3)GalNAc
# How it was run: as §1
# [1] = molecular target: Fuc(a1-2)Gal(b1-3)GalNAc(b1-3)Gal
# How it was run: as §1
# [2] = molecular target: Fuc(a1-2)Gal(b1-3)GalNAc(b1-3)Gal(a1-4)Gal(b1-4)Glc
# How it was run: as §1
# [3] = molecular target: Fuc(a1-2)Gal(b1-3)GalNAc(b1-4)[Neu5Ac(a2-3)]Gal(b1-4)Glc
# How it was run: as §1
# Fuc(a1-2)Gal(b1-3)GlcNAc = molecular target: Fuc(a1-2)Gal(b1-3)GlcNAc
# How it was run: as §1
# [4] = molecular target: Fuc(a1-2)Gal(b1-3)GlcNAc(b1-2)Man(a1-3)[Fuc(a1-2)Gal(b1-3)GlcNAc(b1-2)Man(a1-6)]Man(b1-4)GlcNAc(b1-4)GlcNAc
# How it was run: as §1
# [5] = molecular target: Fuc(a1-2)Gal(b1-3)GlcNAc(b1-3)Gal(b1-4)Glc
# How it was run: as §1
# [6] = molecular target: Fuc(a1-2)Gal(b1-3)GlcNAc(b1-3)[Gal(b1-4)[Fuc(a1-3)]GlcNAc(b1-6)]Gal(b1-4)Glc
# How it was run: as §1
# [7] = molecular target: Fuc(a1-2)Gal(b1-3)[Fuc(a1-4)]GlcNAc
# How it was run: as §1
# [8] = molecular target: Fuc(a1-2)Gal(b1-3)[Fuc(a1-4)]GlcNAc(b1-2)Man(a1-3)[Fuc(a1-2)Gal(b1-3)[Fuc(a1-4)]GlcNAc(b1-2)Man(a1-6)]Man(b1-4)GlcNAc(b1-4)GlcNAc
# How it was run: as §1
# Fuc(a1-2)Gal(b1-4)Glc = molecular target: Fuc(a1-2)Gal(b1-4)Glc
# How it was run: as §1
# Fuc(a1-2)Gal(b1-4)Glc6S = molecular target: Fuc(a1-2)Gal(b1-4)Glc6S
# How it was run: as §1
# Fuc(a1-2)Gal(b1-4)GlcNAc = molecular target: Fuc(a1-2)Gal(b1-4)GlcNAc
# How it was run: as §1
# [9] = molecular target: Fuc(a1-2)Gal(b1-4)GlcNAc(b1-2)Man(a1-3)[Fuc(a1-2)Gal(b1-4)GlcNAc(b1-2)Man(a1-6)]Man(b1-4)GlcNAc(b1-4)GlcNAc
# How it was run: as §1
# [10] = molecular target: Fuc(a1-2)Gal(b1-4)GlcNAc(b1-3)Gal(b1-4)GlcNAc
# How it was run: as §1
# [11] = molecular target: Fuc(a1-2)Gal(b1-4)GlcNAc(b1-3)Gal(b1-4)GlcNAc(b1-3)Gal(b1-4)GlcNAc
# How it was run: as §1
# [12] = molecular target: Fuc(a1-2)Gal(b1-4)GlcNAc6S
# How it was run: as §1
# [13] = molecular target: Fuc(a1-2)Gal(b1-4)[Fuc(a1-3)]GlcNAc
# How it was run: as §1
# [14] = molecular target: Fuc(a1-2)Gal(b1-4)[Fuc(a1-3)]GlcNAc(b1-2)Man(a1-3)[Fuc(a1-2)Gal(b1-4)[Fuc(a1-3)]GlcNAc(b1-2)Man(a1-6)]Man(b1-4)GlcNAc(b1-4)GlcNAc
# How it was run: as §1
# [15] = molecular target: Fuc(a1-2)Gal(b1-4)[Fuc(a1-3)]GlcNAc(b1-3)Gal(b1-4)[Fuc(a1-3)]GlcNAc
# How it was run: as §1
# [16] = molecular target: Fuc(a1-2)Gal(b1-4)[Fuc(a1-3)]GlcNAc(b1-3)Gal(b1-4)[Fuc(a1-3)]GlcNAc(b1-3)Gal(b1-4)[Fuc(a1-3)]GlcNAc
# How it was run: as §1
# Fuc(a1-2)Gal6S(b1-4)Glc = molecular target: Fuc(a1-2)Gal6S(b1-4)Glc
# How it was run: as §1
# [17] = molecular target: Fuc(a1-2)Gal6S(b1-4)Glc6S
# How it was run: as §1
# [18] = molecular target: Fuc(a1-2)Gal6S(b1-4)GlcNAc
# How it was run: as §1
# Fuc(a1-2)[Gal(a1-3)]Gal = molecular target: Fuc(a1-2)[Gal(a1-3)]Gal
# How it was run: as §1
# [19] = molecular target: Fuc(a1-2)[Gal(a1-3)]Gal(b1-3)GlcNAc
# How it was run: as §1
# [20] = molecular target: Fuc(a1-2)[Gal(a1-3)]Gal(b1-3)GlcNAc(b1-2)Man(a1-3)[Fuc(a1-2)[Gal(a1-3)]Gal(b1-3)GlcNAc(b1-2)Man(a1-6)]Man(b1-4)GlcNAc(b1-4)GlcNAc
# How it was run: as §1
# [21] = molecular target: Fuc(a1-2)[Gal(a1-3)]Gal(b1-4)Glc
# How it was run: as §1
# [22] = molecular target: Fuc(a1-2)[Gal(a1-3)]Gal(b1-4)GlcNAc
# How it was run: as §1
binder,measurement,setting,value
B1,glycan array binding signal (z-score),Fuc(a1-2)Gal,-0.208
same,glycan array binding signal (z-score),Fuc(a1-2)Gal(b1-3)GalNAc,-0.409
same,glycan array binding signal (z-score),[1],1.79
same,glycan array binding signal (z-score),[2],0.257
same,glycan array binding signal (z-score),[3],-0.145
same,glycan array binding signal (z-score),Fuc(a1-2)Gal(b1-3)GlcNAc,0.211
same,glycan array binding signal (z-score),[4],-0.264
same,glycan array binding signal (z-score),[5],-0.108
same,glycan array binding signal (z-score),[6],-0.105
same,glycan array binding signal (z-score),[7],-0.125
same,glycan array binding signal (z-score),[8],0.146
same,glycan array binding signal (z-score),Fuc(a1-2)Gal(b1-4)Glc,0.174
same,glycan array binding signal (z-score),Fuc(a1-2)Gal(b1-4)Glc6S,-0.383
same,glycan array binding signal (z-score),Fuc(a1-2)Gal(b1-4)GlcNAc,-0.291
same,glycan array binding signal (z-score),[9],0.318
same,glycan array binding signal (z-score),[10],-0.512
same,glycan array binding signal (z-score),[11],6.73
same,glycan array binding signal (z-score),[12],-0.411
same,glycan array binding signal (z-score),[13],8.05
same,glycan array binding signal (z-score),[14],0.558
same,glycan array binding signal (z-score),[15],-0.068
same,glycan array binding signal (z-score),[16],1.49
same,glycan array binding signal (z-score),Fuc(a1-2)Gal6S(b1-4)Glc,-0.076
same,glycan array binding signal (z-score),[17],-0.103
same,glycan array binding signal (z-score),[18],0.416
same,glycan array binding signal (z-score),Fuc(a1-2)[Gal(a1-3)]Gal,-0.217
same,glycan array binding signal (z-score),[19],-0.352
same,glycan array binding signal (z-score),[20],-0.187
same,glycan array binding signal (z-score),[21],-0.456
same,glycan array binding signal (z-score),[22],-0.399
